About 65 (0.1%) of roughly 45,000 compounds were called active. The call rests on the fitted dose curve; in most records, active means well fitted activation curve with a large enough effect; inconclusive means small, poorly fitted or top-dose-only effect; inactive means no such curve, though single readings can be large or run the other way. The list shows a part of the results.
Target: Galactocerebrosidase (Homo sapiens) (UniProt P54803)
Assay: A Novel Cell-Based Assay to Identify Small Molecules for B -Galactocerebrosidase; further: 0% is about no effect; nearly all actives have a fitted effect of over 65% in size
Conditions: 145M-Twi-hGALC-G270D cells (Twitcher mouse brain line with human GALC G270D), HMU-beta-Gal fluorescence, 48 h; series mostly up to 57.5 µM; activation: at the top concentration
How it was run: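 Mutant human GALC (G270D), stably expressed in a Twitcher mouse brain cell line lacking endogenous GALC, is measured in live-treated cells via 6-hexadecanoylamino-4-methylumbelliferyl-β-galactoside hydrolysis (0.1 mM final, pH 5.2) with fluorescent detection.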

UniProt P54803, sequence (P54803 whole entry, looked up): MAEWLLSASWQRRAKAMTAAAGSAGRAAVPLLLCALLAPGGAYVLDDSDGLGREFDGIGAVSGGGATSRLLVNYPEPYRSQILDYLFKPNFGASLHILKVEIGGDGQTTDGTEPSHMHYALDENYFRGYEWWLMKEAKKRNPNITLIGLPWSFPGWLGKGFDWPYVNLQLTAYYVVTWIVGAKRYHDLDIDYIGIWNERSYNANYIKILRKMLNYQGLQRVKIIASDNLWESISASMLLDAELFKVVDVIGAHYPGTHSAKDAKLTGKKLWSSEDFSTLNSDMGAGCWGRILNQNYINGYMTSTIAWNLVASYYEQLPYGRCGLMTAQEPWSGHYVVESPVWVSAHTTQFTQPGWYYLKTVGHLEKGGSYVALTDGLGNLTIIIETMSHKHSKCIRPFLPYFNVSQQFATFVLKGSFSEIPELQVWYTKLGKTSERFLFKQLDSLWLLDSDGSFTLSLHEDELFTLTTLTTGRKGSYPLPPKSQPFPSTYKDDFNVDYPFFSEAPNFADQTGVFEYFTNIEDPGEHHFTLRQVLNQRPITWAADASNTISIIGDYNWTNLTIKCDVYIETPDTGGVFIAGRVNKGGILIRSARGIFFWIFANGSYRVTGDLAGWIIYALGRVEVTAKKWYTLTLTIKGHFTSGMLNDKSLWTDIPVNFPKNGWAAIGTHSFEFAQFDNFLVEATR

activation, inactive:
Cc1ccccc1CN1C(=O)c2ccccc2Sc2ccc(C(=O)NCCc3ccccc3)cc21 -7.67%, Cc1ccc2nc(NC(=O)c3ccc(S(=O)(=O)N4CCC(C)CC4)cc3)sc2c1 -16.5%, Cc1cccc(C)c1OCC(=O)N(Cc1ccco1)Cc1ccco1 -4.66%, CCOC(=O)c1c(C)[nH]c(C)c1S(=O)(=O)N1CCC(C(=O)N2CCN(c3ccc(F)cc3)CC2)CC1 -5.93%, Cc1ccc2c(=O)cc(CSc3ncn[nH]3)[nH]c2c1C -8.56%, CCn1cc(C(=O)N2CCN(c3cccc(Cl)c3)CC2)c(=O)c2cc(S(=O)(=O)N3CCC(C)CC3)ccc21 -1.02%, O=C(CCCN1C(=O)c2cccnc2Oc2ccc(Cl)cc21)NCc1ccc(F)cc1 -1.67%, CN1CCN(CCNC(=O)c2cnn(-c3ccc(F)cc3)c2C2CCN(C(=O)OC(C)(C)C)CC2)CC1 -11.6%, Cc1ccc(N2CC(NC(=O)c3cccs3)CC2=O)cc1 (stereo not given) -4.79%, CCCCNC(=O)c1ccc2c(c1)N=C(CC)c1ccccc1S2 -9.87%, Cc1ccc2c(c1)C(=O)OC(C(=O)Nc1ccccc1C(=O)O)C2 (stereo not given) -10.9%, O=C(CN1C(=O)C2(SCC(=O)N2c2ccc(F)cc2)c2ccccc21)NC1CCCCC1 (stereo not given) -22.5%, CCOc1ccc(-n2cc(-c3ccccc3)c3c(NC4CCCC4)ncnc32)cc1 1.9%, CC1=C(c2ccc(C)c(C)c2)S(=O)(=O)N(Cc2ccc(C(=O)Nc3cc(F)ccc3F)cc2)C1=O -12.1%, O=C(Nc1ccccc1)Nc1nnc(SCC(=O)N2CCCCC2)s1 -13.3%, Cc1ccc(N2C(=O)CSC23C(=O)N(CC(=O)NCc2ccccc2)c2ccccc23)cc1 (stereo not given) 6.99%, CCCCc1ccc(NC(=O)CSc2nc(=O)[nH]c3c2CCCC3)cc1 -16.6%, Cc1ccccc1Nc1nc(N)c(C(=O)c2ccccc2Cl)s1 -12.7%, Cc1cc2oc(C(=O)N(Cc3ccc(N(C)C)cc3)Cc3ccco3)c(C)c2cc1Cl -11.6%, COc1cccc(N2CC(NC(=O)COc3ccccc3F)CC2=O)c1 (stereo not given) -14.3%, CCOc1ccc(NC(=O)c2cnc3sc(N4CCOCC4)nn3c2=O)cc1 1.38%, O=C(Nc1cccc(C(=O)OCc2cc(=O)n3nc(C4CC4)sc3n2)c1)c1cccc(Cl)c1 -0.0185%, COc1ccc(Nc2oc(/C=C/c3ccccc3OC)nc2C#N)cc1 -16.5%, Cc1ccc(C)c(NC(=O)CSc2ccc3nc(-c4ccccc4)cn3n2)c1 -3.77%, CCOc1ccc(CCNC(=O)Cn2c(-c3cccs3)cc3ccccc32)cc1OCC -12.6%, COC(=O)CCN(c1ccccc1)C(CNS(=O)(=O)c1ccccc1)c1ccccc1 (stereo not given) -23.3%, CCOc1ccc(S(=O)(=O)N2CCN(Cc3nc4ccc(C)cc4o3)CC2)cc1 -44.3%, O=C(CSc1nc2c([nH]c3ccccc32)c(=O)n1-c1ccccc1F)Nc1cccc(C(F)(F)F)c1 -37%, COc1cc2c(cc1NC(=O)c1ccccc1C)n(C)c(=O)n2C 1.23%, CCSc1nnc(NC(=O)c2cc(=O)c3cc(C)ccc3o2)s1 -19.8%, O=C(CSc1oc(-c2ccc(F)cc2)nc1S(=O)(=O)c1ccccc1)NC1CCCCC1 -12.1%, CCc1ccc(CNC(=O)c2ccc(-c3nc(CSc4ccc(C)cc4)c(C)o3)cc2)cc1 -3.67%, Cc1nc2cc(-c3cccc(F)c3)nn2c(C)c1CCC(=O)NC(C)c1ccccc1 (stereo not given) -21.1%, COc1cc(C(=O)NCCc2sc(-c3cccc(F)c3)nc2C)cc(OC)c1OC -7.32%, O=C(Nc1ccccc1Br)c1cc(CN2CCCC2)on1 8.06%, CCCCOc1ccccc1C1CC(=O)Nc2cc(C)c(C)cc21 (stereo not given) -24%, O=C(CCN1C(=O)c2ccccc2Sc2ncccc21)Nc1ccc(F)cc1 -15.1%, CC(CCc1ccccc1)NC(=O)Cn1ncc2c3ccccc3n(Cc3ccccc3)c2c1=O (stereo not given) 1.83%, CC(C)CNc1ncnc2onc(-c3ccc(Cl)cc3)c12 -9.78%, CCOC(=O)c1ccc(NC(=O)c2oc3c(c2C)-c2nn(Cc4ccccc4Cl)cc2CC3)cc1 -14.8%, COc1ccc(-c2nnc(SCC(=O)Nc3c(C)cccc3C)nc2-c2ccc(OC)cc2)cc1 -11.5%, COc1cccc(CNC(=O)CCn2cnc3ccccc3c2=O)c1 -20.7%, COc1ccc(CN(Cc2ccco2)C(=O)COc2ccccc2OC)cc1 -3.8%, CCc1ccc2occ(CC(=O)Nc3ccc(OC)c(Cl)c3)c2c1 -13.7%, CCOc1ccc(C(=O)Oc2c(Sc3ccccc3)c(C)nn2C(C)(C)C)cc1OCC -18.6%, Cc1nc(SCC(=O)Nc2ccc(C)c(Cl)c2)cc(-c2ccccc2)n1 -15.6%, O=C(Nc1ccccc1Cl)[C@H](CSCc1ccccc1)N1Cc2ccccc2C1=O -13.9%, COc1ccccc1N1CCN(S(=O)(=O)c2ccc(F)c(C(=O)Nc3ccc(Cl)cc3C(F)(F)F)c2)CC1 -3.75%, CC(C)c1ccc(CNC(=O)c2ccc(N3CCCC3)c(NC(=O)NCc3ccccc3)c2)cc1 -8.76%, O=C(c1ccc2c(c1)CCN2S(=O)(=O)c1ccccc1)N1CCN(c2ccccc2F)CC1 -9.27%, CCc1ccccc1-n1cnc2cc(C(=O)NC3CCCCCC3)ccc21 -5.32%, CCCCNC(=O)CCc1c(C)nc2cc(-c3ccccc3)nn2c1C -11.7%, Cc1ccc(OCC(=O)Nc2c(C(=O)c3ccc(Cl)cc3)oc3ccccc23)cc1C -1.5%, CC(=O)N1CCCc2cc(S(=O)(=O)N3CCCC(C(=O)NC(C)C)C3)ccc21 (stereo not given) -20.5%, COc1ccc(N2C(=O)C(CC(=O)Nc3ccccc3)N(CCC3=CCCCC3)C2=O)cc1 (stereo not given) -15.5%, Cc1[nH]c2ccccc2c1C1(O)C(=O)N(Cc2ccccc2)c2ccc(Cl)cc21 (stereo not given) -6.07%, COc1ccc(-c2nnc(SC(C)C(=O)O)o2)cc1 (stereo not given) -2.09%, CSc1ccc(-c2nc3cccc(C)n3c2Nc2ccc3c(c2)OCO3)cc1 -13.6%, O=C(CN1C(=O)CSc2ccc(S(=O)(=O)N3CCCC3)cc21)NCc1ccccc1Cl -18.9%, COc1ccc(-n2nc(C(=O)Nc3ccc(C(C)=O)cc3)nc2-c2ccccc2)cc1 -11.4%, CCOc1ccc(C2c3c(oc4ccc(C)cc4c3=O)C(=O)N2CCCN(C)C)cc1OC (stereo not given) 1.71%, Cc1cc(-c2ccc(S(=O)(=O)Nc3ccc(Cl)cc3)cc2)on1 -8.29%, CC(C)Oc1ccc(CNC(=O)c2sc3ncccc3c2-n2cccc2)cc1 -9.69%, CO[C@H]1C=CO[C@@]2(C)Oc3c(C)c(O)c4c(O)c(c(/C=N/N5CCN(C)CC5)c(O)c4c3C2=O)NC(=O)/C(C)=C\C=C[C@H](C)[C@H](O)[C@@H](C)[C@@H](O)[C@@H](C)[C@H](OC(C)=O)[C@@H]1C -17%, Cc1cn(C)c(CC(=O)Nc2ccc(F)cc2Cl)c1C(=O)O -5.44%, O=S(=O)(c1ccc(Cl)cc1)c1nc(-c2cccs2)oc1SCc1ccccc1F -6.51%, COc1ccc(-c2nnc(SCCOc3ccccc3C)o2)cc1OC -18%, Cc1ccc(OCC(=O)Nc2nonc2-c2ccc(Br)cc2)cc1C -11.8%, Cc1cc(C)cc(OCCSc2nc3ccc(NC(=O)COc4ccccc4)cc3s2)c1 -25.8%, CCOC(=O)c1c(NC(=O)C2c3ccccc3Oc3ccccc32)sc2c1CCC(CC)C2 (stereo not given) -1.74%, COc1ccc(N2CCN(C(=O)C(C)n3nc(C)c4sc5ccccc5c4c3=O)CC2)cc1 (stereo not given) -13.1%, CCc1ccc(NC(=O)Cn2nc(SC)c(S(=O)(=O)c3ccc(OC)cc3)c2N)cc1 -16.7%, CCOC(=O)C(CC)N1CCN(Cc2ccc(F)cc2)C(=O)C1=O (stereo not given) -14.9%, COc1ccc(-c2ccc(NS(=O)(=O)c3cc(C)c(C)cc3C)cc2)nn1 -13%, O=C(Nc1nc2c(F)cccc2s1)c1ccc(S(=O)(=O)N2CCCc3ccccc32)cc1 -5.6%, CCn1nc(C)c2c(-c3ccccc3)cc(=O)n(C(C)C(=O)Nc3cc(C)ccc3C)c21 (stereo not given) -14.1%, O=C(c1ccc(F)cc1)C1CCN(CCn2c(=O)[nH]c3ccccc3c2=O)CC1 -11.7%, CC(=O)C1=C(c2cccc([N+](=O)[O-])c2)N(C(C)=O)n2c(nnc2-c2ccc(C)cc2)S1 -10.5%, CCS(=O)(=O)NCC(c1ccco1)N1CCN(c2ccc(F)cc2)CC1 (stereo not given) -8.34%, CCOC(=O)c1c(S(=O)(=O)N2CCCC(C(=O)N3CCN(c4cc(C)ccc4C)CC3)C2)c(C)n(C)c1C (stereo not given) -20.8%, CCc1ccc(NC(=O)Cn2c(=O)n(CCCC(=O)NCc3ccc4c(c3)OCO4)c(=O)c3ccccc32)cc1 -1.57%, CC(=O)c1cccc(NC(=O)CCn2nc(C)c(S(=O)(=O)N(C)C)c2C)c1 -3.56%, CC(C)Nc1nc2c(S(=O)(=O)c3cccc(Cl)c3)nnn2c2ccsc12 -11.2%, Cc1ccc(C(=O)NCC(c2cccs2)S(=O)(=O)c2ccccc2)cc1C (stereo not given) 2.9%, CC(C)c1ccc(S(=O)(=O)N2CCN(CC(=O)Nc3ccccc3C(F)(F)F)CC2)cc1 -9.99%, CC(C)CCNC(=O)c1ccc2nc(CCc3ccccc3)oc2c1 -11.2%, Cc1cc2nc3c(=O)[nH]c(=O)nc-3n(C[C@H](O)[C@H](O)[C@H](O)CO)c2cc1C -6.15% [at 23.8 µM], COC(=O)c1nnn(CC(=O)Nc2c(C)cccc2C)c1N -18.2%, COc1cc(CN(C(=O)Nc2cccc(Cl)c2)c2ccccn2)cc(OC)c1OC -22.7%, COC(=O)c1ccc(C(=O)OC)c(NC(=O)c2c(-c3ccccc3)noc2C)c1 16.7%, COc1ccc(CCNc2nc(SCc3ccccc3F)nc3ccccc23)cc1OC -8.55%, CCCCC(CC)CNC(=O)CCCCn1c(=O)[nH]c2ccsc2c1=O (stereo not given) -17%, COC(=O)c1sc(N2C(=O)c3oc4ccc(C)cc4c(=O)c3C2c2ccc(O)c(OC)c2)nc1C (stereo not given) -15.6%, CCOC(=O)c1c(C)oc2nc(C)nc(NCCc3ccc(OC)c(OC)c3)c12 -11.4%, CCOC(=O)Cc1c(C)nc2cc(-c3ccc(C(C)(C)C)cc3)nn2c1C 4.83%

Source: PubChem BioAssay AID1159614 (National Center for Advancing Translational Sciences (NCATS), 2016)
